Experimental data published in PubChem BioAssay AID602404 (Sanford-Burnham Center for Chemical Genomics, 2012).
Some entries of the source have several records that differ or are many. Only these are listed. How the calls were made is not given here. There may be further records. The records of an entry are repeats (runs, samples, wells, individuals or studies). Records carry a tag for their origin. The letters are not those of the source and start again with each entry.

Molecular target: Ubiquitin-conjugating enzyme E2 N (Homo sapiens) (UniProt P61088)
Sequence of UniProt P61088 (P61088 whole entry, looked up): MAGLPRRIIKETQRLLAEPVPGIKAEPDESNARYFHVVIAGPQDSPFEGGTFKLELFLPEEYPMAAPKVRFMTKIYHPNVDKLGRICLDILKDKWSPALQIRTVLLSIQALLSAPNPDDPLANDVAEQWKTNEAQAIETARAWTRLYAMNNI
Test: UBC13 polyubiquitination inhibitors, SAR follow-up, biochemical, TR-FRET, set 4 (AID 602404)

In the case of `Cc1ccc(NC(=O)C2CCN(c3ncnc4c3nc3n4CCCCC3)CC2)cc1C`, the IC50 is reported as 7.58 µM [sample A] and inactive [sample B].
